{"source": "PubChem BioAssay AID624418", "about": "(National Center for Advancing Translational Sciences (NCATS), 2012)", "note": "The campaign covered roughly 410,000 compounds. About 530 (0.13%) were called active. Inconclusive results, whose numbers are uncertain, are shown with a selection of clear calls. The call rests on the fitted dose curve; in most records, active means well fitted inhibition curve with a large enough effect; inconclusive means small, poorly fitted or top-dose-only effect, or another doubt; inactive means no such curve, though single readings can be large or run the other way. Potencies of inconclusive entries are doubtful fits and often do not repeat. On the % scale 0 is the no-effect control and ±100 the full control effect; potency means the concentration at half of the fitted maximal effect.", "data": [{"test": "qHTS of GLP-1 Receptor Inverse Agonists: Cytotox Screen", "details": "HEK293 cAMP-luciferase reporter cells, luminescence, 24 h; activity change, negative = inhibition: at 38.3 µM (top of the series) unless noted", "summary_of_the_method": "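Luminescence readout: signal drop marks cytotoxicity. Plated cells grew 12 h at 37 °C, 5% CO2, received 23 nL compound for 24 h, then got luciferase reagent, read after 12 min at RT.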", "values": [{"smiles": "N[C@@H](Cc1ccccc1)c1nnc(SCc2ccccc2F)o1", "Potency": "inconclusive: 7.94 µM [inhibitor, partial curve]"}, {"smiles": "Cc1cccnc1C(c1ccc(F)cc1)N(C)C(=O)C1CCN(CCOc2ccc(Cl)cc2Cl)CC1", "note": "(stereo not drawn)", "Potency": "inconclusive: 28.2 µM [inhibitor, single point]"}, {"smiles": "CC(C)(C)c1cc(CCC(=O)N2CCCC2)cc(C(C)(C)C)c1O", "activity change, negative = inhibition": "inactive: 12.4%"}, {"smiles": "C/C(=N\\NC(=O)c1ccccc1)c1ccc(C)c([N+](=O)[O-])c1", "activity change, negative = inhibition": "inactive: -12.4%"}, {"smiles": "CC1CCCC(NC(=S)NC(=O)c2ccco2)C1C", "note": "(stereo not drawn)", "Potency": "inconclusive: 28.2 µM [inhibitor, single point]"}, {"smiles": "CN(C)c1ccc(N=Nc2ccccc2C(=O)OCC(=O)N(C)c2ccccc2)cc1", "Potency": "inconclusive: 2.24 µM [inhibitor, partial curve, poor fit]"}, {"smiles": "CCCN1CNC(=S)N(c2cc(C)ccc2C)C1", "activity change, negative = inhibition": "inactive: -1.65%"}, {"smiles": "CCC(=O)NC(=S)Nc1ccccc1F", "activity change, negative = inhibition": "inactive: -1.74%"}, {"smiles": "CN(C)CCCN(C(=O)c1ccc2c(c1)CCCC2)c1nc2ccc(F)cc2s1", "Potency": "inconclusive: 11.2 µM [inhibitor, partial curve, poor fit]"}, {"smiles": "CN(CCO)c1ccc(C=NNc2ccc([N+](=O)[O-])cc2S(=O)(=O)Nc2ccccc2C(=O)O)cc1", "Potency": "inconclusive: 28.2 µM [inhibitor, single point]"}, {"smiles": "CN(Cc1ccccc1)C(=O)c1[nH]cnc1C(=O)NCC(=O)OCc1ccccc1", "Potency": "inconclusive: 31.6 µM [inhibitor, single point]"}, {"smiles": "CCn1c(=S)[nH]c2cc(S(=O)(=O)N3CCCCC3)ccc21", "activity change, negative = inhibition": "inactive: -11.9%"}, {"smiles": "CC(=O)OCC1OC(Sc2cccc3cccnc23)C(OC(C)=O)C(OC(C)=O)C1OC(C)=O", "note": "(stereo not drawn)", "Potency": "inconclusive: 31.6 µM [inhibitor, single point]"}, {"smiles": "CC1(c2cccc(Br)c2)NC(=O)N(CC(=O)c2ccc3c(c2)OCO3)C1=O", "note": "(stereo not drawn)", "activity change, negative = inhibition": "inactive: -7.44%"}, {"smiles": "CC(C)N(C)c1ncnc2c1ncn2[C@H]1CN(C2CCCC2)C[C@@H](CO)O1", "activity change, negative = inhibition": "inactive: 6.75%"}, {"smiles": "CN(C)c1ccc(C=c2c3cc(O)ccc3n3c2cc(-c2ccccc2)[n+]3C)cc1", "Potency": "inconclusive: 12.6 µM [inhibitor, partial curve, poor fit]"}, {"smiles": "O=c1cnc2ccccc2n1Cc1ccc(Br)cc1", "Potency": "inconclusive: 11.2 µM [inhibitor, single point]"}, {"smiles": "CC(=O)[C@]1(O)Cc2c(O)c3c(c(O)c2[C@@H](O[C@H]2C[C@H](N)[C@H](O)[C@H](C)O2)C1)C(=O)c1ccccc1C3=O", "Potency": "inconclusive: 0.251 µM [inhibitor, partial curve, poor fit]"}, {"smiles": "CCCCN1C=CC(=C2N=c3cccc([N+](=O)[O-])c3=N2)C=C1", "Potency": "inconclusive: 1.58 µM [inhibitor, partial curve, poor fit]"}, {"smiles": "CC(NC(=S)Nc1ccccc1)C1COc2ccccc2O1", "note": "(stereo not drawn)", "Potency": "inconclusive: 28.2 µM [inhibitor, single point]"}, {"smiles": "CCCOC(=O)c1ccc(Oc2c(-c3ccc(OC)cc3O)n[nH]c2C)cc1", "Potency": "inconclusive: 11.2 µM [inhibitor, single point]"}, {"smiles": "O=C(Oc1c(-c2ccccc2)c(=O)n2c3c(cccc13)CC2)c1ccco1", "activity change, negative = inhibition": "inactive: 0%"}, {"smiles": "COc1ccc(S(=O)(=O)NC2CC(=O)N(c3cccc(F)c3)C2)cc1OC", "note": "(stereo not drawn)", "activity change, negative = inhibition": "inactive: -14.3%"}, {"smiles": "Cc1cc(O)c(/C=N/Nc2ccc(F)cc2)c(=O)o1", "Potency": "inconclusive: 2 µM [inhibitor, full curve]"}, {"smiles": "COc1ccc(Cl)cc1NC(=S)NN1CCOCC1", "Potency": "inconclusive: 28.2 µM [inhibitor, single point]"}, {"smiles": "Brc1ccc2ncnc(Nc3ccc(N4CCOCC4)cc3)c2c1", "Potency": "inconclusive: 2.24 µM [inhibitor, full curve]"}, {"smiles": "CC(C)CCCN1C(Nc2ccccc2)=NC[C@@H]1C", "Potency": "inconclusive: 28.2 µM [inhibitor, single point]"}, {"smiles": "O=C(Nc1ccc(F)cc1)C(c1ccccc1OC(F)(F)F)N1CCN(C(=O)c2ccco2)CC1", "note": "(stereo not drawn)", "activity change, negative = inhibition": "inactive: -5.14%"}, {"smiles": "O=C(NC(c1ccc(Cl)cc1)c1cccnc1)C1CCN(CCOc2ccc(Cl)cc2Cl)CC1", "note": "(stereo not drawn)", "Potency": "inconclusive: 10 µM [inhibitor, partial curve, poor fit]"}, {"smiles": "O=C(Nc1ccc(Br)cc1)/C(=C/c1cccc([N+](=O)[O-])c1)NC(=O)C1CCCCC1", "Potency": "inconclusive: 8.91 µM [inhibitor, partial curve, poor fit]"}, {"smiles": "CC(C)NC(=S)NN=C1CCCCCCCCCCC1", "Potency": "inconclusive: 10 µM [inhibitor, single point]"}, {"smiles": "CCCCNc1oc(-c2ccc(COc3ccccc3C)o2)nc1C#N", "Potency": "inconclusive: 31.6 µM [inhibitor, single point]"}, {"smiles": "COc1ccc(C(O)(CCN2CCCCC2)C2CCCCC2)cc1", "note": "(stereo not drawn)", "activity change, negative = inhibition": "inactive: -1.22%"}, {"smiles": "CCOc1ccc2oc(=O)cc(CN3CCN(Cc4ccc(C)cc4)CC3)c2c1", "Potency": "inconclusive: 5.01 µM [inhibitor, partial curve, poor fit]"}, {"smiles": "Cc1ncc(CO)c2c1Oc1nc(-c3ccccc3)nc(SCC(=O)N3CCOCC3)c1C2", "Potency": "inconclusive: 11.2 µM [inhibitor, partial curve]"}, {"smiles": "CCC(=O)c1ccc(OCC(=O)OCC(=O)c2cc(C)n(C)c2C)cc1", "activity change, negative = inhibition": "inactive: -2.53%"}, {"smiles": "Nc1nc(-c2ccccn2)nc(N)c1Cc1ccc(Cl)cc1Cl", "Potency": "inconclusive: 1.78 µM [inhibitor, full curve, poor fit]"}, {"smiles": "COc1cc(OC)c(NS(=O)(=O)c2c(C(=O)N3CCCCCC3)c(C)n(C)c2C)cc1Cl", "activity change, negative = inhibition": "inactive: 2.18%"}, {"smiles": "Cc1ccc(N(C)C(=O)c2ccc3c(Cl)c4c(nc3c2)CCC4)cc1C", "Potency": "inconclusive: 28.2 µM [inhibitor, single point]"}, {"smiles": "O=C(OCn1ncc(Br)c(Br)c1=O)c1ccc(F)cc1", "Potency": "inconclusive: 6.31 µM [inhibitor, partial curve, poor fit]"}, {"smiles": "CSc1ccc(NC(=O)C2CCN(c3ncccn3)CC2)cc1", "activity change, negative = inhibition": "inactive: 2.84%"}, {"smiles": "Oc1[nH]c(=S)sc1/C=C1\\C(c2ccccc2)=Nc2ccccc21", "Potency": "inconclusive: 25.1 µM [inhibitor, single point]"}, {"smiles": "O=[N+]([O-])c1cccc(N/N=C/c2cccc(O)c2O)c1", "Potency": "inconclusive: 10 µM [inhibitor, partial curve, poor fit]"}, {"smiles": "OC(c1cccc(OCc2ccccc2)c1)c1nnc(-c2ccccc2)o1", "note": "(stereo not drawn)", "activity change, negative = inhibition": "inactive: -3.2%"}, {"smiles": "O=C(NC(=S)NCc1ccccc1)c1ccccc1", "Potency": "inconclusive: 20 µM [inhibitor, single point]"}, {"smiles": "Cc1c(N=C2C=CC(=O)c3ccccc32)c(=O)n(-c2ccccc2)n1C", "activity change, negative = inhibition": "inactive: -8.23%"}, {"smiles": "CC1CN(CCS(=O)(=O)c2cc(Cl)ccc2Cl)CC(C)O1", "note": "(stereo not drawn)", "Potency": "inconclusive: 10 µM [inhibitor, partial curve]"}, {"smiles": "COc1ccccc1CNC(=O)C(Cc1c[nH]c2ccccc12)NC(=O)OCc1ccccc1", "note": "(stereo not drawn)", "Potency": "inconclusive: 31.6 µM [inhibitor, partial curve, poor fit]"}, {"smiles": "Cc1cc(NC(=O)/C=C/c2cccc(Cl)c2)n(-c2nc3ccccc3[nH]2)n1", "activity change, negative = inhibition": "inactive: 4.84%"}, {"smiles": "COc1cc(/C=N/Nc2nc3ccccc3[nH]2)cc(OC)c1O", "Potency": "inconclusive: 7.08 µM [inhibitor, partial curve]"}, {"smiles": "CCC(=O)NC(NC(=S)Nc1ccccc1Br)C(Cl)(Cl)Cl", "note": "(stereo not drawn)", "activity change, negative = inhibition": "inactive: -22.9%"}, {"smiles": "C=CCn1c(-c2csc(-c3ccc(OC)c(OC)c3)n2)n[nH]c1=S", "Potency": "inconclusive: 12.6 µM [inhibitor, single point]"}, {"smiles": "COc1cccc(C2/C(=C(/O)c3ccccc3)C(=O)C(=O)N2Cc2ccco2)c1", "note": "(stereo not drawn)", "Potency": "inconclusive: 22.4 µM [inhibitor, single point]"}, {"smiles": "CCCC(C(=O)NC1CCCC1)N(C(=O)Cn1nnc(-c2ccc(C)o2)n1)c1cccc(O)c1", "note": "(stereo not drawn)", "Potency": "inconclusive: 5.62 µM [inhibitor, full curve, poor fit]"}, {"smiles": "CN(C)c1ccc(CNC(=O)C2CCCN(S(=O)(=O)c3ccc4c(c3)CCCC(=O)N4)C2)cc1", "note": "(stereo not drawn)", "activity change, negative = inhibition": "inactive: 11.5%"}, {"smiles": "CCc1n[nH]c(=S)n1/N=C/c1cccc2ccccc12", "Potency": "inconclusive: 28.2 µM [inhibitor, single point]"}, {"smiles": "Cc1cc(C(=O)CCl)c(C)n1-c1ccon1", "activity change, negative = inhibition": "inactive: -26%"}, {"smiles": "COc1ccc(CN(C)C(=O)c2cc(-c3ccccc3)nc3ccc(C)cc23)c(OC)c1OC", "Potency": "inconclusive: 28.2 µM [inhibitor, single point]"}, {"smiles": "Cc1ccccc1NC(=O)c1nc(S(C)(=O)=O)ncc1N(Cc1ccco1)Cc1sccc1C", "activity change, negative = inhibition": "inactive: -2.43%"}, {"smiles": "COc1cc2c(cc1OC)C(COc1ccc3c(C)cc(=O)oc3c1)N(C(=O)Cc1ccccc1)CC2", "note": "(stereo not drawn)", "activity change, negative = inhibition": "inactive: 0.518%"}, {"smiles": "CCN(CC)CCNc1cc(C)nc2c1C(=O)C(=O)C=C2N1CCCCC1", "Potency": "inconclusive: 28.2 µM [inhibitor, single point]"}, {"smiles": "COc1ccccc1CNc1nc(NCc2ccc3occc3c2)c2sccc2n1", "Potency": "inconclusive: 28.2 µM [inhibitor, single point]"}, {"smiles": "CC(C)C[C@H](N)c1nnc(S(=O)(=O)Cc2ccc(F)cc2)o1", "Potency": "inconclusive: 12.6 µM [inhibitor, single point]"}, {"smiles": "O=C(O)c1ccc(N(c2ccccc2)c2ccccc2)cc1", "activity change, negative = inhibition": "inactive: -4.9%"}, {"smiles": "COc1ccccc1C1CC(=O)Nc2cc(C)c(C)cc21", "note": "(stereo not drawn)", "Potency": "inconclusive: 5.62 µM [inhibitor, partial curve, poor fit]"}, {"smiles": "COc1ccc(NC(=O)c2cc(-c3ccccn3)nc3ccccc23)cc1S(=O)(=O)N(C)C", "Potency": "inconclusive: 10 µM [inhibitor, partial curve, poor fit]"}, {"smiles": "FC(F)(F)c1cccc(NC(=S)Nc2cccc(Cl)c2)c1", "Potency": "inconclusive: 28.2 µM [inhibitor, single point]"}, {"smiles": "CCN(CC(=O)N1CCOCC1)S(=O)(=O)c1ccc(F)cc1", "Potency": "inconclusive: 4.47 µM [inhibitor, full curve, poor fit]"}]}]}
